# From PubChem BioAssay AID1963436 (Molecular Pharmacology Branch, DTP, NCI, 2024)
# Some entries of the source have several records that differ or are many. They are shown here; other results are not. An entry can have further records. Results that share an entry are repeated measurements (runs, samples, wells, individuals or studies). Additions like (4×) give the number of equal values in this list.
# Test system: OVCAR-5 complex spheroid (HUVEC/MSC), viability % T/C
# Test: Anticancer human tumor OVCAR-5 cell line growth inhibition [Asc];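 note: spheroids exposed to agents for 7 days before readout; 100% = DMSO vehicle-treated wells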
# Settings: stronger effect = lower value
# Protocol: Multicellular complex tumor spheroid response to apoptosis pathway targeting inhibitors Alrizomadlin, Pelcitoclax, and Dasminapant in combination with a variety of drugs and investigational agents in selected tumor cell lines
# The MDM2 inhibitor alrizomadlin, the Bcl-2/Bcl-xL inhibitor pelcitoclax, and the IAPs inhibitor dasminapant were evaluated both individually and in combination with standard of care and investigational anticancer small molecules within a complex spheroid model of solid tumors. . Complex spheroids include a stromal component modeled by human endothelial cells (HUVEC) and fibroblasts modeled by human mesenchymal stem cells (MSCs). The concentration ranges selected for each drug and investigational agent were based upon clinically achievable concentrations if the clinical Cmax of the agent was known.
# Compounds. […] If the clinical Cmax for an agent had not been determined, the highest concentration tested was 10 microM. […]
compound,measurement,setting,value
Cc1c(S(C)(=O)=O)c(-c2cc(F)cc(N3CCN(c4ccc(NS(=O)(=O)c5ccc(NC(CCN6CCC(C(=O)OCCCP(=O)(O)O)CC6)CSc6ccccc6)c(S(=O)(=O)C(F)(F)F)c5)cc4)CC3)c2)c(-c2ccc(Cl)cc2)n1C(C)C (configuration not stated),"viability, T/C",compound alone 0.1 µM,"90.7, 91.9, 109, 94.3, 82.2, 94.2, 101 (2×), 95.9, 99.3, 89.7, 88.3, 95.7, 82.8%"
same,"viability, T/C",compound alone 10 µM,"112 (2×), 121, 123, 109, 92.8, 124, 104, 118, 111, 114, 117, 115, 103%"
